The list shows a part of the results.

Our source for the binding signal values is paper PMC12136788.

B1: chr18:2804133:2804242:+|3pUTR|ENSG00000101596|unk|total|mutant (ssRNA)
RNA: GGGAGUUCUACAGUCCGACGAUCGGUUAAAGAGAAAUGACUUUUCCGGAACCCGACUUGAACGUAUAAUUAAUAUGUGGAACCCGUUUGCUUUUAUAAUUCAUUGUAUCAAGAAGGAGUCAUGUUUUAAAUCCAAGGCAUUGACAACAGAGGAUUGAGCAUCA
B2: chr22:41245667:41245769:-|3pUTR|ENSG00000100401|msi1|FALSE|unique (ssRNA)
RNA: GGGAGUUCUACAGUCCGACGAUCCAAUGUCCGAGCUGCAUCUGGACGCUGCUCUUAAAGGACCUCCUGGGGCAGGGGAGCGGUAGGGUCUGGACUGGGCAGAUGCUGUAUGACCUCCCUGAGCACCCGUGACUGCCCCAUGCUCAACAGAGGAUUGAGCAUCA
B3: chr7:5606511:5606625:+|3pUTR|ENSG00000075618|msi1_unk|total|mutant (ssRNA)
RNA: GGGAGUUCUACAGUCCGACGAUCGGGUGUCUUGGUCUUUUAUUUUUUGUAAGUGUCAUUUGUAUAACUCUAAACGCCCAUGACCGCCGCUUCAAACUGGAAACCGCGAAAUAAAAUAACUCAGUCUGCAGCCCCAGGCCGGCCCAACAGAGGAUUGAGCAUCA
B4: chrX:74588119:74588220:-|3pUTR|ENSG00000131263|msi1|total|mutant (ssRNA)
RNA: GGGAGUUCUACAGUCCGACGAUCUCCGAAAAUGCUGGGAUUACAGGCGUGAGCCACCAUGUCCAGCCAAAGUUGAGGUUUAUCCGUACUAUCCGAAACAAAAUUGAGCAAGUUAAGUUAAAAGUUUGCUGACUUUGUAUCAACCAACAGAGGAUUGAGCAUCA
B5: chr15:48342169:48342270:+|3pUTR|ENSG00000128951|msi1_unk|FALSE|overlapping (ssRNA)
RNA: GGGAGUUCUACAGUCCGACGAUCAAAAAAAAAAAAAGUUUUUGCUUCAAGUGUUUUGGUGUUUUGCACUUCUGUAAACUUACUAGCUUUACCUUCUAAAAGUACUGCAUUUUUUACUUUUUUUUAUGAUCAAGGAAAAGAUCACAACAGAGGAUUGAGCAUCA
B6: chr12:98549714:98549829:+|3pUTR|ENSG00000120802|unk|FALSE|unique (ssRNA)
RNA: GGGAGUUCUACAGUCCGACGAUCGAAGAUGUAUAUUUAGACCAGCACACAAUUUUGAUUUCAAUUAGCCUUAUUCUAAUAUUUAGCUUUUAGAUCUUUCAUACACAUUUUCACGUACUUUGCAAUUGAGACCAGAAAGACUUGCAACAGAGGAUUGAGCAUCA
B7: chr11:77702383:77702481:-|5pUTR_CDS|ENSG00000048649|msi1_unk|FALSE|overlapping (ssRNA)
RNA: GGGAGUUCUACAGUCCGACGAUCAUUUUUAGAGGAACAGAAAGAAAGUGAAAAGAUGAAAAGUGAGGAGCAGCCUAUGGAUUUAGAAAACCGUUCUACAGCCAAUGUUCUAGAAGAGACUACUGUGAAAAAAGAAAAAGAAGACAACAGAGGAUUGAGCAUCA
B8: chr12:74541195:74541296:+|3pUTR|ENSG00000253719|msi1|total|mutant (ssRNA)
RNA: GGGAGUUCUACAGUCCGACGAUCUGGGGGAAGGGGGGGGUUCUUUAAAAUUUCUGUGGUUUGUGGCUUUUUCUUCCAUACAUCCGUUCCCACCAUCGCAUGCCCAGGGACCACUGCCUGGCAUUAUCGCAUGCUGGGAUCAUCCAACAGAGGAUUGAGCAUCA
B9: chr14:100883672:100883793:-|CDS|ENSG00000254656|unk|FALSE|unique (ssRNA)
RNA: GGGAGUUCUACAGUCCGACGAUCUCUAUUCCGGGUCCCUCAGCCGGAUUCCCUAGACAGUCUGAUUGUGCUCAUCCUGCAAAUAGAAGAGAAGCUGGCAGAGAGAAGAGCUAUGCUCAGGCUGCCCCCCGAGGCCCGCCCCCGCAACAGAGGAUUGAGCAUCA
B10: ENSG00000124766:be:win_2651|3pUTR|ENSG00000124766|bound_else_gene|NA|bound_elsewhere_windowed (ssRNA)
RNA: GGGAGUUCUACAGUCCGACGAUCAAAUUAUCACCAGCUUUUUUUCAUUCUUAACUCUUUAAAGGAUUCAAACGCAACUCAAAUCUGUGCUGGACUUUAAAAAAACAAUUCAGGACCAAAUUUUUUCUCAGUGUGUGUGUUUAUCAACAGAGGAUUGAGCAUCA
B11: chr13:108210595:108210700:-|CDS|ENSG00000174405|unk|total|mutant (ssRNA)
RNA: GGGAGUUCUACAGUCCGACGAUCUCAGCACUUGAGCAAAAGUGGCUUAUACGGAUGAUCAUAAAGGAUUUAAAGCUUGGUGUCCGUCAGCAAACUAUCUUUUCUGUUUUUCAUAAUGAUGCUGCUGAGUUGCAUAAUGUCACUCAACAGAGGAUUGAGCAUCA
B12: ENSG00000124766:be:win_2201|3pUTR|ENSG00000124766|bound_else_gene|NA|bound_elsewhere_windowed (ssRNA)
RNA: GGGAGUUCUACAGUCCGACGAUCGCGGGAGCUAGGGGCGGGGGCGGAGGAGGACACGAACUGGAAGGGGGUUCACGGUCAAACUGAAAUGGAUUUGCACGUUGGGGAGCUGGCGGCGGCGGCUGCUGGGCCUCCGCCUUCUUUCAACAGAGGAUUGAGCAUCA
B13: chr10:62092816:62092917:+|CDS|ENSG00000150347|msi1|total|mutant (ssRNA)
RNA: GGGAGUUCUACAGUCCGACGAUCUUUUACAUCACCGACAAAUUCUCAGCAGCUGUACAGACACUUGGCUGCGGCUACACCUGCCGGAAGUUCAUAUGGGGACCUUUUGCAUAACAGCAUUUACCCUUCCGCUGCUAUAAAUCCCAACAGAGGAUUGAGCAUCA
B14: chr6:112122013:112122201:-|CDS|ENSG00000112769|control|control|control (ssRNA)
RNA: GGGAGUUCUACAGUCCGACGAUCCCCAGAGCGGAAUACUCCAAGAAACUCUCAUUGCCACCUUUCCAACAGCCCUAGAGCAAUAGAGCACGCCUAUCAAUAUGGAGGAACAGCCAACAGCCGCCAAGAGUUUGAACACUUAAACAACAGAGGAUUGAGCAUCA

In the test the target is MSI1 full-length (mouse, UniProt Q61474 1-362). The experiment in a line: nsRBNS (natural sequence RNA bind-n-seq); RBNS binding buffer (assumed for nsRBNS): 25 mM Tris pH 7.5, 150 mM KCl, 3 mM MgCl2, 0.01% Triton X-100, 500 ug/ml BSA, 20 U/ml SUPERase-In, 4 C; UNK is unkempt and MSI1 is Musashi-1; names of the RNAs are library labels; protein concentration not given here; high values mean tight binding.
Chain of UniProt Q61474 (Q61474 whole entry): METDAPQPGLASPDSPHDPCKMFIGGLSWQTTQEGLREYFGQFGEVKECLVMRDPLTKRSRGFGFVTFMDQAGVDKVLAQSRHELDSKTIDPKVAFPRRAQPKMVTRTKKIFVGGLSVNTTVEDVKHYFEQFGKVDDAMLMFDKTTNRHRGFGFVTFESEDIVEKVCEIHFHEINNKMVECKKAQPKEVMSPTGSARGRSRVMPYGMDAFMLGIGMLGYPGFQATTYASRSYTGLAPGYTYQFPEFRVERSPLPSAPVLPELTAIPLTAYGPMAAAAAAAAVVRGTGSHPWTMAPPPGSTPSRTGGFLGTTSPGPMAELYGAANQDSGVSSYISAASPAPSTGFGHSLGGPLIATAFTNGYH
Turning to B1, the binding signal amounted to 0.796 enrichment R.

Molecule B2 showed a binding signal of 0.277 enrichment R.

As for B3, the binding signal was found to be 0.53 enrichment R.

As to B4, the binding signal was 0.246 enrichment R.

The molecule B5 yielded a binding signal of 0.384 enrichment R.

Molecule B6 came in with a binding signal of 23.7 enrichment R.

In turn, B7 had a binding signal of 1.41 enrichment R.

Regarding B8, the binding signal came to 0.827 enrichment R.

B9 registered a binding signal of 0.603 enrichment R.

B10 yielded a binding signal of 0.819 enrichment R.

As for B11, the binding signal came to 0.223 enrichment R.

Turning to B12, the binding signal is 0.529 enrichment R.

The molecule B13 displayed a binding signal of 0.416 enrichment R.

As to B14, the binding signal was 0.759 enrichment R.
